# Measurements as given in PubChem BioAssay (Tox21).
# “And” between values parts separate entries of the source, which are not always exact repeats. Equal values may be shown once. Inconclusive means that the source gave no clear call. Such entries were picked first, then a sample of the others. For some assays here: Where the call is inconclusive, the potency comes from a doubtful curve fit. More than one record can exist for a structure, and the calls need not agree. The source made the active and inactive calls. Unless noted, the call rests on the fitted dose curve; in most records, active means well fitted curve in the direction sought with a large enough effect in the repeat runs; inconclusive means weak or mixed curves; inactive means no such curve, though single readings can be large; an effect the other way counts as inactive or inconclusive.
# Experiments:
# [1] = qHTS assay to identify small molecule antagonists of the thyroid receptor (TR) signaling pathway (AID 743065); further: potency means the concentration at half of the fitted maximal effect; nearly all actives have a fitted effect of over 55% in size
# Method in brief: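 GH3.TRE-Luc rat pituitary cells (two TREs driving luciferase) were dosed with compound, then stimulated with 1 nM T3 (final) for 23.5 h at 37 C. ONE-Glo luminescence was the read-out, with CellTiter-Fluor fluorescence as the cytotoxicity counter-screen.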
# [2] = qHTS assay to identify small molecule antagonists of the estrogen receptor alpha (ER-alpha) signaling pathway using the BG1 cell line - cell viability counter screen (AID 743081); conditions: BG1Luc4E2 viability, CellTiter-Fluor, 22 h; series mostly up to 70.3 µM;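 further: compound given together with 17beta-estradiol as the ER stimulus; potency means the concentration at half of the fitted maximal effect; nearly all actives have a fitted effect of over 45% in size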
# [3] = A CellTox Green Cytotoxicity Assay to monitor cytotoxicity in HEK293 cells - 40 hour (AID 1224871); further: nearly all actives have a fitted effect of over 45% in size; further: potency means the concentration at half of the fitted maximal effect
# Method in brief: (§1)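 Cytotoxicity was tracked continuously in HEK293 cells by a DNA-binding dye excluded from viable cells. Compounds were transferred in DMSO 5 h after seeding; fluorescence was recorded at intervals up to 40 h.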
# [4] = qHTS RealTime-Glo MT Cell Viability Assay in HEK293 cells - 8 hour (AID 1224887); further: nearly all actives have a fitted effect of over 50% in size; further: potency means the concentration at half of the fitted maximal effect
# Method in brief: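 Nonlytic bioluminescent viability monitoring. HEK293 at 600 cells/well with reagent; 5 h settle; compound transfer by pintool; plates held at 37 C and read at set time points.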
# [5] = molecular target: Progesterone receptor (Homo sapiens) (UniProt P06401); assay: qHTS assay to identify small molecule agonists of the progesterone receptor (PR) signaling pathway (AID 1346784; calls by dose curve; further: potency means the concentration at half of the fitted maximal effect; nearly all actives have a fitted effect of over 30% in size); conditions: PR-UAS-bla HEK293T, beta-lactamase FRET ratio, 16 h; activation: at 92.4 µM (top of the series) unless noted
# Method in brief: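 Reporter assay, GripTite PR-UAS-bla HEK 293T cells: 16 hr exposure to DMSO-dissolved compounds at 37C, 5% CO2, in steroid-depleted (2% charcoal-stripped FBS) medium; beta-lactamase measured by FRET fluorescence.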
# [6] = molecular target: Acetylcholinesterase (Homo sapiens) (UniProt P22303); assay: Acetylcholinesterase (AChE) small molecule antagonists: colormetric cell-based qHTS assay (AID 1347395; calls by dose curve; further: potency means the concentration at half of the fitted maximal effect; nearly all actives have a fitted effect of over 30% in size)
# Method in brief: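 After overnight attachment at 37 C, SH-SY5Y cells get 30 min compound exposure; detection cocktail (acetylthiocholine, DTNB) then incubates 90 min at 37 C, and absorbance reflects AChE-generated thiocholine.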
# [7] = molecular target: Voltage-gated inwardly rectifying potassium channel KCNH2 (Homo sapiens) (UniProt Q12809); assay: Human Ether-a-go-go-Related Gene (hERG) channel small molecule antagonists: fluorescence cell-based qHTS assay (AID 1671200); further: nearly all actives have a fitted effect of over 50% in size; further: potency means the concentration at half of the fitted maximal effect
# Method in brief: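 In this thallium-flux screen, overnight-cultured U2OS cells bearing the channel are dye-loaded in darkness for an hour, rested 10 min at room temperature, and then monitored kinetically at 480/540 nm for two minutes post-stimulus.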
# [8] = molecular target: Cytochrome P450 3A4 (Homo sapiens) (UniProt P08684); assay: Cytochrome P450 Family 3 Subfamily A Member 4 (CYP3A4) small molecule antagonists: luciferase reporter qHTS assay (AID 1671201); further: nearly all actives have a fitted effect of over 50% in size
# Method in brief: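 CYP3A4 activity was followed with a P450-Glo proluciferin substrate. Test compounds in DMSO were preincubated 10 min; NADPH regeneration then ran 1 h, and light output was read 20 min after detection reagent.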
# [9] = qHTS assay to identify small molecule antagonists of the retinoid acid receptor (RAR) signaling pathway - cell viability counter screen (AID 1159551); further: nearly all actives have a fitted effect of over 35% in size; further: potency means the concentration at half of the fitted maximal effect
# Method in brief: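 Cytotoxicity counter screen in C3RL4 cells: 6 h compound exposure with 1 uM retinol (final), viability from cellular ATP by luminescence.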
# [10] = molecular target: Estrogen receptor (Homo sapiens) (UniProt P03372); assay: qHTS assay to identify small molecule agonists of the estrogen receptor alpha (ER-alpha) signaling pathway using the BG1 cell line (AID 743079); conditions: BG1Luc4E2 cells, ERE-luciferase agonist, 22 h; activation: at 70.3 µM (top of the series) unless noted; further: nearly all actives have a fitted effect of over 20% in size; further: potency means the concentration at half of the fitted maximal effect
# [11] = qHTS assay to identify small molecule antagonists of the estrogen related receptor (ERR) signaling pathway from Tox21 library - cell viability counter screen (AID 1224834); further: nearly all actives have a fitted effect of over 30% in size; further: potency means the concentration at half of the fitted maximal effect
# Method in brief: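 Cytotoxicity of test substances is gauged in the same ERR cells used for the antagonist screen, after 17.5 h of compound treatment at 37 C, by CellTiter-Fluor fluorescence measured after 30 min.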
# [12] = molecular target: Acetylcholinesterase (Homo sapiens) (UniProt P22303); assay: Acetylcholinesterase (AChE) small molecule antagonists: fluorescence cell-based qHTS assay (AID 1347398; calls by dose curve; further: potency means the concentration at half of the fitted maximal effect; nearly all actives have a fitted effect of over 50% in size); conditions: Potency: AChE activity
# Method in brief: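 Endogenous acetylcholinesterase of SH-SY5Y neuroblastoma cells is measured in situ. After overnight attachment and 30 min compound exposure, cells receive acetylthiocholine and Thiolite Green; fluorescence is read after 40 min at room temperature.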
# [13] = A CellTox Green Cytotoxicity Assay to monitor cytotoxicity in HepG2 cells - 16 hour (AID 1224876); further: potency means the concentration at half of the fitted maximal effect; nearly all actives have a fitted effect of over 45% in size
# Method in brief: (§2)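 Real-time, homogeneous cytotoxicity readout: dead-cell DNA staining by CellTox Green in HepG2 monolayers, fluorescence measured at timed intervals up to 40 h of continuous compound exposure.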
# [14] = A CellTox Green Cytotoxicity Assay to monitor cytotoxicity in HEK293 cells - 32 hour (AID 1224881); further: potency means the concentration at half of the fitted maximal effect; nearly all actives have a fitted effect of over 40% in size
# Method in brief: as §1
# [15] = A CellTox Green Cytotoxicity Assay to monitor cytotoxicity in HEK293 cells - 8 hour (AID 1224884); further: potency means the concentration at half of the fitted maximal effect; nearly all actives have a fitted effect of over 35% in size
# Method in brief: as §1
# [16] = A CellTox Green Cytotoxicity Assay to monitor cytotoxicity in HepG2 cells - 32 hour (AID 1224883); further: nearly all actives have a fitted effect of over 50% in size; further: potency means the concentration at half of the fitted maximal effect
# Method in brief: as §2
# [17] = A CellTox Green Cytotoxicity Assay to monitor cytotoxicity in HepG2 cells - 24 hour (AID 1224878); further: nearly all actives have a fitted effect of over 45% in size; further: potency means the concentration at half of the fitted maximal effect
# Method in brief: as §2
# [18] = qHTS assay to identify small molecule agonists of H2AX (AID 1224845; active means well fitted activation curve with a large enough effect in the signal ratio in the repeat runs, not every such curve was filed as active; inconclusive means weak or mixed curves; the % refers to the signal ratio; further: potency means the concentration at half of the fitted maximal effect); conditions: CHO-K1 phospho-H2AX Ser139 HTRF, 3 h; series mostly up to 154 µM
# Method in brief: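 Wild-type CHO-K1 cells, plated overnight, exposed 3hr at 37C to 15 concentrations (0.76% DMSO final). Lysed, then HTRF anti-pH2AX (S139) cryptate and anti-H2AX-d2 antibodies, 24 hr room temperature; 665/620 nm emission read.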
# [19] = A CellTox Green Cytotoxicity Assay to monitor cytotoxicity in HepG2 cells - 40 hour (AID 1224879); further: potency means the concentration at half of the fitted maximal effect; nearly all actives have a fitted effect of over 40% in size
# Method in brief: as §2
# [20] = molecular target: Luciferin 4-monooxygenase (Photinus pyralis) (UniProt P08659); assay: qHTS assay to identify small molecule inhibitors of firefly luciferase (AID 1224835); further: potency means the concentration at half of the fitted maximal effect; nearly all actives have a fitted effect of over 25% in size
# Method in brief: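 Biochemical qHTS: compounds run as interplate titrations against purified firefly enzyme, with D-luciferin and ATP each at its KM concentration. Light output recorded by CCD imaging.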
# Tags describe the fitted curve by direction and shape or compound fluorescence and quenching.
# Chain of UniProt P22303 (P22303 whole entry, looked up): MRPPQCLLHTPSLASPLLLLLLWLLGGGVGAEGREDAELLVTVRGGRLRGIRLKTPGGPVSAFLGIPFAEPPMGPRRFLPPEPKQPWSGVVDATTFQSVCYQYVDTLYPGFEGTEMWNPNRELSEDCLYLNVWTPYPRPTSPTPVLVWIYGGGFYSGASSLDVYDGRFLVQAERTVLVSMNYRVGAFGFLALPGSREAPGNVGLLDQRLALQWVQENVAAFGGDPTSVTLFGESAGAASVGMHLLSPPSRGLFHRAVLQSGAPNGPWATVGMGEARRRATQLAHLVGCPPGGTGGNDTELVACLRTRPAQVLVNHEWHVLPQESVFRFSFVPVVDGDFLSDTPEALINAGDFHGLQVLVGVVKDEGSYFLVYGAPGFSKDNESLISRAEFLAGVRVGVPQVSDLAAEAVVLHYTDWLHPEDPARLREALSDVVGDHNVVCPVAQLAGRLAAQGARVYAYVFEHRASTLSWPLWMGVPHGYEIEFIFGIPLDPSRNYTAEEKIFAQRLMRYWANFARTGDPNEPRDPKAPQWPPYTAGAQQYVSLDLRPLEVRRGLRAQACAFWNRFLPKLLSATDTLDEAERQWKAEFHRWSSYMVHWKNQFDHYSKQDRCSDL
# Chain of UniProt P08659 (P08659 whole entry, looked up): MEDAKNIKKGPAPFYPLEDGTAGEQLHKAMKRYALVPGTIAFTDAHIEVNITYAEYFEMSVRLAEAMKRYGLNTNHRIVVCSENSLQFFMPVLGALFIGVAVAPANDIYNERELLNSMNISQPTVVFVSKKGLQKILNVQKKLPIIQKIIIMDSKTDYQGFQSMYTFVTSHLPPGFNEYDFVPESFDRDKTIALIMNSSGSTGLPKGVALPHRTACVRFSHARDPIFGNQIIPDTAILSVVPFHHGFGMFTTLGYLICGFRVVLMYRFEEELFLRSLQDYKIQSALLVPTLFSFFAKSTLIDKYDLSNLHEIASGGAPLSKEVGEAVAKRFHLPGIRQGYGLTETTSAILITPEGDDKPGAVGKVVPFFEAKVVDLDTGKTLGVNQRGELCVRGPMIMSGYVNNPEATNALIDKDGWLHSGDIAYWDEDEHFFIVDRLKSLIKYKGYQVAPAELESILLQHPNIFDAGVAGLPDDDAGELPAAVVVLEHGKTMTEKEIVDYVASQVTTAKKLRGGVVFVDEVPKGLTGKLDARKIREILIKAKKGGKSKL
# Chain of UniProt Q12809 (Q12809 whole entry, looked up): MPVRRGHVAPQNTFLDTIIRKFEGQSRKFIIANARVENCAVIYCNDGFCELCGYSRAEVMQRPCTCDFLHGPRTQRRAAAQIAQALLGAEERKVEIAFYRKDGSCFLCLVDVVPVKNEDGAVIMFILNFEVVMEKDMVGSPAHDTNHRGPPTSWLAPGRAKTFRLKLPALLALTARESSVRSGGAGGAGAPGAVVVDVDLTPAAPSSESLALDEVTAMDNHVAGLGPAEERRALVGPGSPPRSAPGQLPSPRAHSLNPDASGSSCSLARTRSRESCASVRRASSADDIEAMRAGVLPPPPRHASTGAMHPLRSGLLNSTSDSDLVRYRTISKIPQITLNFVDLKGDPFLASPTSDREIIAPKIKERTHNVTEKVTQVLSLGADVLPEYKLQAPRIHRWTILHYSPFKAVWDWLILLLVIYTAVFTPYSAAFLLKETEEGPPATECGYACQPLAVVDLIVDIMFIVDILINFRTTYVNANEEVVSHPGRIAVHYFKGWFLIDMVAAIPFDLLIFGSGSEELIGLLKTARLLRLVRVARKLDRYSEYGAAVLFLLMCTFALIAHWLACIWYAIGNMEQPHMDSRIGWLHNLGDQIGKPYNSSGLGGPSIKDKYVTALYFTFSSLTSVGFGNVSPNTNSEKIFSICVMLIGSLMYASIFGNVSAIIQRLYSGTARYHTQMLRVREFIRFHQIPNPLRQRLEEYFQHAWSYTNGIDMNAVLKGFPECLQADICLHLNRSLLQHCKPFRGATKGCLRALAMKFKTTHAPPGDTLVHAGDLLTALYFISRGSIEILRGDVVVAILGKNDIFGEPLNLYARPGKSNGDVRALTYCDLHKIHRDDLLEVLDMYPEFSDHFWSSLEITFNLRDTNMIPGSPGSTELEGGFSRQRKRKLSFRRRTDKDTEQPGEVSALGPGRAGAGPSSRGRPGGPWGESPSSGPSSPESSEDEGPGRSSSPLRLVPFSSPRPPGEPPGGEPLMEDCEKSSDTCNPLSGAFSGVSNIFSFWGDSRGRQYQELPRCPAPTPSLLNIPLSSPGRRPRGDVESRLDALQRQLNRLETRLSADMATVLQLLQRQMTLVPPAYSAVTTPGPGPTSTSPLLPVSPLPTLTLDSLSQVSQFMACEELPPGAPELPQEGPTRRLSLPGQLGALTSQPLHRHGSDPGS
# Chain of UniProt P03372 (P03372 whole entry, looked up): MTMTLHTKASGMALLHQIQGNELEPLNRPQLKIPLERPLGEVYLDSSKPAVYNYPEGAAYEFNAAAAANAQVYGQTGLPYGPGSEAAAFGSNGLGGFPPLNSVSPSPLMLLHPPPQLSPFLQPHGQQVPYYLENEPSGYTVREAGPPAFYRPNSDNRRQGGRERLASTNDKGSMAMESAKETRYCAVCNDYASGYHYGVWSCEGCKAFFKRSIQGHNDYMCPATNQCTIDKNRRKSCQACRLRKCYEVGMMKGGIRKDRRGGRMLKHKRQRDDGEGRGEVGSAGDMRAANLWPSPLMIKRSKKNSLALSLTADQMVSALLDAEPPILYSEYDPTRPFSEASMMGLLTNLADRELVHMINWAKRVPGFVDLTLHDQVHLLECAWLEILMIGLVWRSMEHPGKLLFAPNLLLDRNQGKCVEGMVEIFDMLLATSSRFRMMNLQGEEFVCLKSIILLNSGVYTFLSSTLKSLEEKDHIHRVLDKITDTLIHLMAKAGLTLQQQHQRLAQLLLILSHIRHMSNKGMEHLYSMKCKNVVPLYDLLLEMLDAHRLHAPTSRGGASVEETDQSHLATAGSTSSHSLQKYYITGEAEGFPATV
# Chain of UniProt P06401 (P06401 whole entry, looked up): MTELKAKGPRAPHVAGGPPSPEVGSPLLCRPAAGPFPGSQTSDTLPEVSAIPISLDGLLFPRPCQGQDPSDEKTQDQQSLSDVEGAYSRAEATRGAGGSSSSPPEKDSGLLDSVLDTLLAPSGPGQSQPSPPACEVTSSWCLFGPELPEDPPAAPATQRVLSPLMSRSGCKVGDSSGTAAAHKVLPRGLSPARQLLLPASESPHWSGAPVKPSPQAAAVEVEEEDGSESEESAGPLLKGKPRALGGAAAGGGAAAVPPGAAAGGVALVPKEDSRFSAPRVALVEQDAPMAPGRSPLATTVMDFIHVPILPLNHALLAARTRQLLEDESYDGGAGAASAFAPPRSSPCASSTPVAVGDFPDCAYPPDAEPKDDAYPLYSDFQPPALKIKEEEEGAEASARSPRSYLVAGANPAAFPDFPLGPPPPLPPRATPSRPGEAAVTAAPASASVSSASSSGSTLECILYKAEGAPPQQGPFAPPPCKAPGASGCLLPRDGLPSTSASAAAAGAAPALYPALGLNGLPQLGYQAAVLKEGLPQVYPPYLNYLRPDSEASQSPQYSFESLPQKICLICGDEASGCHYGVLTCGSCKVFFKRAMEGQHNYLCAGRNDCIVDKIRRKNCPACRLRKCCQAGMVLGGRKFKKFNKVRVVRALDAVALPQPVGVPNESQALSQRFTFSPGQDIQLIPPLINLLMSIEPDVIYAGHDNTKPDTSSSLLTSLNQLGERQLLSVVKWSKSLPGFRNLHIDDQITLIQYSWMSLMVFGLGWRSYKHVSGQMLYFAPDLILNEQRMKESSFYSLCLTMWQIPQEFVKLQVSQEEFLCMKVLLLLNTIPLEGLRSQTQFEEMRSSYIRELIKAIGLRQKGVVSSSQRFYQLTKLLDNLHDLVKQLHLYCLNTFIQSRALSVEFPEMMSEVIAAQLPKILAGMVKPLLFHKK
# Chain of UniProt P08684 (P08684 whole entry, looked up): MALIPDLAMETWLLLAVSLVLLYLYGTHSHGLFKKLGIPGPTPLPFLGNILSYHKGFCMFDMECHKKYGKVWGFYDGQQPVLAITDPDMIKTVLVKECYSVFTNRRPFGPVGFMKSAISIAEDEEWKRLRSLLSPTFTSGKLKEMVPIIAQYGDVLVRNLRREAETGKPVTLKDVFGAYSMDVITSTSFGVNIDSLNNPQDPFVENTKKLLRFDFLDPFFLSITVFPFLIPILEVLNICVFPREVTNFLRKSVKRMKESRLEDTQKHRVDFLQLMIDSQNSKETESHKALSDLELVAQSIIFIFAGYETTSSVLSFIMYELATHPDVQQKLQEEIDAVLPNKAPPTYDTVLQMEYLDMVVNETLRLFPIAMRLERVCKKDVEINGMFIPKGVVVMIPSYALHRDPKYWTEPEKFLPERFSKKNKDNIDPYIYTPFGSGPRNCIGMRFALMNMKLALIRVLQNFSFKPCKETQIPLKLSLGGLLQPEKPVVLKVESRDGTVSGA
structure (smiles),measurement,setting,value
C[C@]12CC[C@H]3[C@@H](CCC4=CC(=O)CC[C@@H]43)[C@@H]1CC[C@@H]2OC(=O)CCc1ccccc1,Potency,[1],"inconclusive: 26.6 µM [inhibitor, partial curve]"
same,Potency,[2],"inconclusive: 33.5 µM [rising, single point]"
same,Potency,[3],"inconclusive: 30.1 µM [activator, single point]"
same,Potency,[4],inactive
same,Potency,[5],active: 1.5 µM
same,Potency,[6],"inconclusive: 0.347 µM [inhibitor, single point]"
same,Potency,[7],"inconclusive: 10.7 µM [inhibitor, partial curve]"
same,Potency,[8],inactive
ClC(Cl)(Cl)Br,Potency,[9],inactive
Nc1c(Br)cc([N+](=O)[O-])cc1[N+](=O)[O-],Potency,[10],"inconclusive: 55.1 µM [inhibitor, partial curve]"
same,Potency,[2],active: 31 µM
same,Potency,[9],"inconclusive: 27.6 µM [rising, single point]"
same,Potency,[11],"inconclusive: 61.8 µM [cytotoxic, partial curve]"
same,Potency,[6],active: 36 µM
same,Potency,[12],"inconclusive: 40.4 µM [inhibitor, partial curve, poor fit]"
CNC(=O)O/N=C(\C)SC,Potency,[9],inactive
same,Potency,[11],inactive
same,Potency,[3],inactive
same,Potency,[13],active: 0.219 µM
same,Potency,[12],active: 1.26 µM
ClC(Br)Br,Potency,[10],inactive
same,Potency,[9],inactive
[N-]=[N+]=CC(=O)OC[C@H](N)C(=O)O,Potency,[3],"inconclusive: 24.5 µM [activator, full curve, poor fit]"
same,Potency,[13],active: 27.5 µM
same,Potency,[14],"inconclusive: 27.5 µM [activator, full curve, poor fit]"
same,Potency,[15],"inconclusive: 34.7 µM [activator, partial curve, poor fit]"
CC(Oc1cccc(Cl)c1)C(=O)O (stereo unspecified),Potency,[16],inactive
O=CC=O,Potency,[10],active: 28.1 µM
same,Potency,[17],inactive
same,Potency,[15],"inconclusive: 0.2 µM [activator, single point]"
[Cl-].[Cl-].[Cl-].[Yb+3],Potency,[18],inactive
same,Potency,[3],inactive
same,Potency,[5],"inconclusive: 15.4 µM [rising, partial curve]"
COc1ccc(C(=O)c2c(C)n(CCN3CCOCC3)c3ccccc23)cc1,Potency,[1],"inconclusive: 33.5 µM [inhibitor, single point]"
same,Potency,[2],"inconclusive: 26.6 µM [cytotoxic, partial curve, poor fit]"
same,Potency,[11],"inconclusive: 33.5 µM [cytotoxic, single point]"
same,Potency,[18],"inconclusive: 22 µM [fluorescent, partial curve]"
same,Potency,[13],"inconclusive: 1.07 µM [activator, partial curve]"
same,Potency,[17],"inconclusive: 1.2 µM [activator, partial curve]"
same,Potency,[19],"inconclusive: 26.8 µM [activator, partial curve, poor fit]"
same,Potency,[16],"inconclusive: 1.2 µM [activator, partial curve]"
CC(C)=CCN1CC[C@@]2(C)c3cc(O)ccc3C[C@@H]1[C@@H]2C,Potency,[17],inactive
same,Potency,[19],"inconclusive: 12.1 µM [activator, partial curve, poor fit]"
same,Potency,[6],active: 31.2 µM
same,Potency,[12],active: 44.1 µM
same,Potency,[7],"inconclusive: 43 µM [inhibitor, partial curve]"
same,Potency,[8],inactive
O=NN1CCN(N=O)CC1,Potency,[9],inactive
same,Potency,[4],inactive
O=C(CCCCl)c1ccc(F)cc1,Potency,[9],inactive
C=CCSSCC=C,Potency,[18],"inconclusive: 40.1 µM [rising, partial curve, poor fit]"
same,Potency,[15],active: 54.9 µM
c1ccc2c(c1)oc1ccccc12,Potency,[20],"inconclusive: 64.2 µM [inhibitor, partial curve] and inconclusive: 79.6 µM [inhibitor, single point]"
same,Potency,[3],"inconclusive: 62.6 µM [activator, single point] and inconclusive: 49 µM [activator, single point]"
same,Potency,[17],"inconclusive: 54.9 µM [activator, single point]"
same,Potency,[19],"inconclusive: 22.2 µM [activator, partial curve] and inconclusive: 49 µM [activator, partial curve, poor fit]"
same,Potency,[14],"inconclusive: 43.6 µM [activator, single point]"
same,Potency,[16],"inconclusive: 22.2 µM [activator, single point] and inconclusive: 54.9 µM [activator, single point]"
same,Potency,[7],"inconclusive: 49.7 µM [inhibitor, partial curve] and inconclusive: 38.9 µM [inhibitor, partial curve]"
O=C(Nc1ccccc1)N(Cc1ccc(Cl)cc1)C1CCCC1,Potency,[4],active: 24.5 µM
same,Potency,[7],active: 38.9 µM
CCOP(=S)(OCC)Oc1cnc2ccccc2n1,Potency,[1],"inconclusive: 54.5 µM [inhibitor, single point]"
same,Potency,[20],"inconclusive: 63.3 µM [inhibitor, partial curve]"
same,Potency,[13],"inconclusive: 49 µM [activator, single point]"
same,Potency,[17],"inconclusive: 54.9 µM [activator, single point]"
same,Potency,[19],"inconclusive: 54.9 µM [activator, single point]"
same,Potency,[16],"inconclusive: 54.9 µM [activator, single point]"
same,Potency,[4],"inconclusive: 34.7 µM [cytotoxic, partial curve]"
same,Potency,[6],active: 35.6 µM
same,Potency,[12],active: 35.6 µM
same,Potency,[7],inactive
